Laboratory results taken from the supplement of paper PMC11417369.
± gives the standard deviation of the averaged measurements. This is one part of the list.

Each sequence was assayed on PfAP2-LT AP2 domain (GST-tagged) (assay: gcPBM binding intensity (ln(normalized median fluorescence intensity)); higher = stronger DNA binding).
In short: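 GST-fused DNA-binding domains of P. falciparum, expressed in E. coli, were applied at about 25 μg on average for 1 h to an Agilent 4 × 180k array of primer-extended double-stranded 36-bp intergenic genomic probes and negative controls. Binding intensity is the highest Masliner-normalised natural-log median intensity across replicate spots of either probe orientation, measured with Alexa488 anti-GST antibody and a 488 nm scan.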

Sequence	gcPBM binding intensity (ln)
AATACATAAAAATAAAAATAAAATATAACTAATATG [CACACA_negctrl_site186]	8.71 ± 0.57
TTATACATATATTTAACACACATTTTATAAAGTGCC [CACACA_site1314]	8.87 ± 0.38
AATCGATAAAATGTTGTGCACATATTTTTATATTTA [GTGCAC_site9651]	8.8 ± 0.35
AAAACTATAATGAATAGTACATAAAAATGGATATAT [XGTACX_site6056]	9.07 ± 0.52
TTTTGACATTAATTACTATAGTGTTCTTATAAAATT [TGCATGCA_negctrl_site589]	8.57 ± 0.47
CATTTTATTTTAATATGTACTTAAAGAAAAAAAATT [XGTACX_site7670]	8.1 ± 0.24
AATATGTATCCATACACACATACATTTTATTTGCAA [CACACA_site874]	9.03 ± 0.39
TTTTATTTATTATTTACACACACGTAGGTGTCCATA [CACACA_site430]	9.51 ± 0.4
TTAAATTACTAATGTGCACACATACTAACGTTTAAA [CACACA_site3573]	9.04 ± 0.37
TATCTTATTTTATCTCGTACATAAAATTAAAAAATT [XGTACX_site3636]	8.2 ± 0.46
TTATATTTTTTAATTACACACAATTCTTATAAATAT [CACACA_site7870]	8.66 ± 0.44
TATTATAACTAAAAAAATCACATAAAATACTTTATT [CACACA_negctrl_site2]	8.29 ± 0.46
TTAACCTTTATATAATACGTATCATCCTCATATATA [CACACA_negctrl_site86]	8.84 ± 0.52
TGTATATATTTGTGCACACCAAAGTTTGATTTTATT [CACACA_site1860]	9.3 ± 0.42
ATATAAAATCAACAAAAAAAAAAAATATATATATAT [XGTACX_negctrl_site251]	9.07 ± 0.25
ATATATAATATATGATGTACTTAATAATTTTTTTTT [XGTACX_site5715]	8.46 ± 0.47
TTAAGGATCCACGATACACACATATCATTCAACAAA [CACACA_site1924]	8.96 ± 0.42
TAATAATCCACAAGCACACACACACCCATATATATA [CACACA_site1267]	9.96 ± 0.13
AATATTTGCCTATGTTGTACTGACATTTTTTTAAGT [XGTACX_site6836]	8.94 ± 0.46
TATATACACATGCGCACACACAAGTGGGAAATTTGG [CACACA_site6930]	9.57 ± 0.5
TATAATCATAAATACACACACATATATATATATATA [CACACA_site5224]	9.865 ± 0.0071
TTCTCATCCTTACATACACACACATATATATATATA [CACACA_site7914]	9.52 ± 0.13
GTTCAATTATTTTTATGTACATATATTTTTTTCTTT [XGTACX_site2505]	9.04 ± 0.58

Sequence	gcPBM binding intensity (ln)
AAATTGGGGCTTGTTACACACTTAGTGTGAGTTCTA [CACACA_site6417]	9.15 ± 0.23
ATTTATAATATGTATACACACACATATATAAATATA [CACACA_site8729]	9.09 ± 0.34
TATTTATTATAAAAATTGTATAAAATAATAATGCTC [GTGCAC_negctrl_site456]	8.33 ± 0.4
GTTATTAAAAACGGGTGTACACATATATAAATATAT [XGTACX_site1234]	9.06 ± 0.48
ACTTTTTTAATGTTACGTACACATAAATAATAATTA [XGTACX_site8092]	8.71 ± 0.37
TTTCACAAATGATATAGTACTTTTTATTATTAACAT [XGTACX_site7976]	8.63 ± 0.42
TTCATTCTATAAAACACACAAATATTTTTGTATCCC [CACACA_site6458]	8.76 ± 0.57
TTTTGTGATCTTACCACCTTTCATAATATTAATAAA [GTGCAC_negctrl_site360]	8.49 ± 0.49
ATAGAACAATTCAGAAGTACATAAAAAGAAAAATTT [XGTACX_site3015]	8.8 ± 0.5
TTGGATGATTAAGGGGGACACACGTTTATATATTTA [CACACA_site338]	9.18 ± 0.2
ATATATTTTAATGATACACACAAGAAATAAAATTAC [CACACA_site5671]	8.88 ± 0.38
ACAAATGAGATTATATGTACACATAACAAATTTACA [XGTACX_site3496]	8.95 ± 0.49
GTTACACCAACAAACACACACACACCGACACCCAAA [CACACA_site5361]	10.1 ± 0.17
AAATGTAAAATTTTATGTACATATATTTATATAATA [XGTACX_site3737]	8.55 ± 0.44
TTTATTTATTTAATTACACACGAACATATAACCATT [CACACA_site7952]	8.9 ± 0.35
ATGTTTTATAAAAGGCGTACACATATATTTAAGTAA [XGTACX_site6231]	8.85 ± 0.37
TAAAAAAAAAAAAAAGTACACACTTATAAAATATTA [CACACA_site872]	8.56 ± 0.57
ATATATTTTTTGAATACACACATATTATATGTAATA [CACACA_site1256]	8.8 ± 0.31
ATTATATACATATATATACACACGTAGTTTCTATTT [CACACA_site8697]	8.97 ± 0.38
TACTTTTTATTTTCTTGTACTTAATTGTCCAGATTT [XGTACX_site4334]	8.75 ± 0.45
ATATATATATATAAATGTACATTTTTCAATAGTTTT [XGTACX_site7449]	9.18 ± 0.15
TATAAATAAATAGATACACACATATATATAAATACA [CACACA_site155]	9.11 ± 0.46
